#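 Method: 48-hour compound exposure of cells in 96-well plates, five concentrations, linear interpolation of endpoints. Here, GI50 denotes the concentration required for 50% inhibition of growth. Definition used: TGI = concentration required for complete inhibition of growth.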 Numbered stars: 1 amine (or outer) side, 2 acyl side, 3 side chain; on linkers, the order of the positions; unused ones are H or OH. Bridge positions count the residues as written; N and C are the ends. Square brackets hold non-standard residues; d marks the D form. Peptide text beside a SMILES is read from it. I, II: the chains in the order shown. Actinocin(1to9) = Cc1c2oc3c(C)ccc(C(=O)[*:2])c3nc-2c(C(=O)[*:1])c(N)c1=O; NMeV = CN[CH](C(=O)O)C(C)C; Sar = CNCC(=O)O
# Test system: NCI-H322M lung
# Assay: DTP human tumour cell line panel, 48 h
SMILES,TGI [µM],GI50 [µM]
CCN(CC)CC(C(C)=O)C(c1ccccc1)c1c(O)c2ccccc2oc1=O (configuration not stated),> 100,–
O=C1NC(=S)NC(=O)C1=Cc1ccc([N+](=O)[O-])o1,> 100,–
O=C1CCC2(c3ccccc3)OCC([C@@H](O)c3ccccc3)N12 (some centres not stated),> 100,–
O=C(NCCc1ccccn1)c1ccc2cc(C(=O)N3CC(CCl)c4ccc([N+](=O)[O-])cc43)[nH]c2c1 (configuration not stated),> 100,–
CN(C)Cc1ccc(O)c(CN(C)C)n1,> 100,–
COc1ncnc2c(Cl)c(C(O)c3ccccc3)c(Cl)cc12 (configuration not stated),> 100,–
C=CC(=O)C#Cc1cnc(OC)nc1OC,> 100,–
O=c1c2c3c(sc2nc2n1sc1nc4sc5c(c4c(=O)n12)CCCC5)CCCC3,> 100,–
COc1ccc(NC(=O)CSc2nc(C)nc3c2sc(=S)n3-c2ccccc2)cc1,> 10,–
Cc1cc2c(cc1Cl)SC(NNC(=O)c1ccccc1)=NS2(=O)=O,> 10,–
CC(=O)Nn1c(Cc2ccc(Cl)cc2)nn(C)c1=O,> 100,–
Nc1nc(N)c2c(Cl)c(CNc3ccc(Cl)c(Cl)c3)ccc2n1,15.3,–
COc1ccc(/C=C/C(=O)C(=O)/C=C/c2ccc(OC)c(OC)c2)cc1OC,> 100,6.69
O=C1CC[C@@H](S(=O)(=O)c2ccccc2)[C@H](/C=C/c2ccccc2)O1,> 100,–
C/C(=N\O)C1CC(CC(=O)O)C1(C)C (configuration not stated),> 100,–
COC(=O)NC1=Nc2ccccc2C(=O)NN1,> 100,–
O=C(c1ccc(Cl)c(Cl)c1)N(C(=S)OC12CC3CC(CC(C3)C1)C2)c1ccccc1,> 100,–
O=C(Cc1csc2[n+]1C(=O)/C(=C/c1ccc(Cl)cc1)S2)Nc1ccccc1,87.1,–
COc1cc2c(cc1OC)C1CN3CCCC3C(O)C1c1cc(OC)c(OC)cc1-2 (configuration not stated),> 100,–
COC(=O)C1C(=O)C(C(=O)OC)C2CCC1N2C (configuration not stated),> 100,–
CC(C)(Oc1cccc(N2CCC[C@@H](C(=O)N(Cc3ccc(-c4cn[nH]c4)cc3)C3CC3)C2)c1)C(=O)N1CCNCC1,28.2,13.8
O=c1[nH]c(-c2ccccc2)nc2cc([N+](=O)[O-])c(/C(Cl)=C/c3ccccc3)cc12,> 100,–
NC(=O)NC(=O)Nc1ccc(Br)cc1,> 39.6,–
CN(C)/C=N/c1cc(=O)n(C)c(=O)n1C,> 100,–

SMILES,TGI [µM],GI50 [µM]
O=[N+]([O-])c1ccccc1S(=O)(=O)c1cccc2c1NCCC2,> 100,–
CC(C)=NC(C(=O)O)C(C)(C)S (configuration not stated),> 100,–
CCOC(=O)C1(C)C2=CC=C(O2)C(C)(C)C2=CC=C(O2)C(C)(C)C2=CC=C(O2)C(C)(C)C2=CC=C1O2,> 100,–
O=C(Nc1nc2ccc(OC(F)(F)F)cc2s1)c1ccc(F)cc1,53.3,4.44
CC12CCC(=O)N1[C@@H](c1ccccc1)[C@@H](c1ccccc1)O2 (some centres not stated),> 100,–
NN/C(=N\S(=O)(=O)c1cc(S(=O)(=O)c2ccccc2)cs1)Nc1ccc(Cl)cc1,> 100,–
COC(=O)c1ccccc1C1CN=NC12Cc1cc3c(cc1C2=O)CCC3 (configuration not stated),> 100,–
CCN1CCCCCCCCCC(=N/O)/C(=N\O)C1,> 100,–
CCN(CC)CCOc1ccc(/C(=C(\C)Cc2ccc(OC)cc2)c2ccc(O)cc2)cc1,11.8,3.92
COC(=O)C1=C(C)NC(CF)=C(C(=O)OC)C1c1cccc2c(=O)c3ccccc3oc12 (configuration not stated),> 100,–
O=C1C=C(Nc2cc(Cl)ccc2Cl)c2ccccc2C1=O,39.8,–
Cc1cc(N(C)c2ccccc2)nc(N(C)c2ccccc2)n1,> 100,–
[N-]=[N+]=NC1(Cc2ccccc2)C(=O)Nc2ccccc2C1=O (configuration not stated),> 100,–
[CH3][Ge]([CH3])([CH2]CC#N)[S]c1ccccc1,> 100,70.5
CC[C@]1(O)CC2CN(CCc3c([nH]c4ccccc34)C(C(=O)OC)(c3cc4c(cc3OC)N(C=O)[C@H]3[C@@](O)(C(=O)OC)[C@H](OC(C)=O)[C@]5(CC)[C@@H]6C[C@@H]6CN6CC[C@]43[C@@H]65)C2)C1 (some centres not stated),> 32.5,< 0.00325
Cc1ccc(NC(=O)CC(=O)N2N=C(N(c3ccccc3)c3ccccc3)CC2c2ccccc2)cc1 (configuration not stated),> 100,–
Cn1c(=O)oc2cc(C(O)CN3CCN(Cc4ccc5c(c4)OCO5)CC3)ccc21 (configuration not stated),> 100,–
C=C1C2CCCC1C1(S(C)(=O)=O)CCCCC21O (configuration not stated),> 100,–
CC1(C)COC(c2cccc(C(O)c3ccc(Cl)cc3)c2)=N1 (configuration not stated),> 100,–
C=C(CC)C(=O)c1ccc(OCC(=O)O)c(Cl)c1Cl,> 100,–
CC(/C=C/c1ccccc1)=N\NC(=S)N/N=C(C)/C=C/c1ccccc1,> 100,–
O=C(O)C1CC[N-]CC1.O=C(O)C1CC[N-]CC1.[NH2-].[NH2-].[Pt+4],> 100,> 100
NC(=S)NN=Cc1ccccc1OCc1cccc(COc2ccccc2C=NNC(N)=S)n1,> 100,–
CCc1nc(N)nc(N)c1-c1ccc(N2CCNCC2)c([N+](=O)[O-])c1,> 100,–

SMILES,TGI [µM],GI50 [µM]
C[Si](C)(C)CCOCN(C(=O)C1=CCC2(CC1)OCCO2)c1ccccc1I,37.9,–
O=C(Oc1ccc(C(c2c(O)c3ccccc3oc2=O)c2c(O)c3ccccc3oc2=O)cc1)c1ccc(C(=O)c2ccccc2)cc1,89.2,–
COC1=CC(=O)C2=C(C1=O)[C@H]1CC[C@]3(C)C(=O)CC[C@H]3[C@@H]1CC2,> 100,–
Cc1[nH]c2ccccc2c1/C=C/c1c(C)[nH]c2ccccc12,> 100,–
CCOC(=O)CCCc1cc(=O)c2c(C)c3[nH]c4ccc(Cl)cc4c3c(C)c2[nH]1,> 100,–
COc1ccc(/C(=N/Nc2nc3ccccc3n2Cc2ccccc2)C(=O)O)cc1,> 100,–
COc1cc(C(=O)/C=C/c2cccnc2Nc2ccc(Cl)cc2)cc(OC)c1OC,3.65,1.95
Oc1c(Cl)cc(Cl)c(Cl)c1Cc1c(O)c(Cl)cc(Cl)c1Cl,13.9,0.706
CN(C)CCNc1ncnc2nc(-c3ccccc3)c(-c3ccccc3)nc12,> 100,–
CC(C)(C)c1cc(Cc2ccc(S(C)(=O)=O)cc2)c(O)c(C(C)(C)C)c1,28,–
COC(=O)NCCc1[nH]nc2c1C(=O)C=C(Nc1ccccc1OC)C2=O,82.9,–
C=C1CC[C@@](C)(c2cc(Br)c(C)cc2OC(C)=O)[C@H]1C,30.1,16.1
Cc1c(CN2CCOCC2)c(CN2CCOCC2)c(C)n1-c1ccc(Cl)cn1,> 100,–
N#Cc1c(-c2ccccc2)nc(SCC(O)CN2CCOCC2)nc1N1CCOCC1 (configuration not stated),> 100,18.8
C=CCc1cc(OC)c(O)c(C(=O)/C=C/c2ccc(OC)c(OC)c2)c1,32.2,–
N#CC(Cl)CS(=O)(=O)c1ccccc1 (configuration not stated),29.9,–
CC(O)C1(O)C(O)CC(OC2c3cc4c(c(O)c3[C@@H]3C[C@@]2(C)OC32C=c3cc[nH]c3=N2)C(=O)c2cccc(O)c2C4=O)OC1C (some centres not stated),6.88,–
c1ccc(C2=Nc3ccccc3N3CNN=C23)cc1,> 100,> 100
COc1c(CC(C)=O)c2ccccc2n1C(C)=O,> 100,–
COc1ccc(/C=N/NS(=O)(=O)c2ccc(/C=C3\NC(=O)NC3=O)cc2)cc1,> 100,–
CNc1ccc(C)cc1S(=O)(=O)c1ccccc1[N+](=O)[O-],> 100,–
COc1cccc(N2C(=N)/C(=C3\Nc4ccccc4S3)CC2=O)c1,> 100,> 100
CC(=O)c1ccc(NC(=O)C(=O)CC(=O)c2sc(-n3nc(-c4ccccc4)cc3-c3ccccc3)nc2C)cc1,> 100,–
CC(=O)[CH-]C(=O)c1ccccc1.CC(=O)[CH-]C(=O)c1ccccc1.CC[C@H](CCC(C)[C@H]1CCC2[C@@H]3CC=C4C[C@@H]([O-])CC[C@]4(C)C3CC[C@@]21C)C(C)C.CC[C@H](CCC(C)[C@H]1CCC2[C@@H]3CC=C4C[C@@H]([O-])CC[C@]4(C)C3CC[C@@]21C)C(C)C.Cl.[Ti+4] (some centres not stated),> 25,–

SMILES,TGI [µM],GI50 [µM]
CC(=O)CCC[C@@H](C)[C@@H]1O[C@H]([C@@]2(C)CCC(=O)O2)CC2[C@H]1OC(=O)C21CC1 (some centres not stated),> 100,> 100
O=C1NC(=NCCc2ccccc2F)S/C1=C\c1ccc2ncccc2c1,> 25,8
CC(=O)n1nc(-c2[nH]c(C)c(-c3nn(C(C)=O)c(=S)o3)c2C)oc1=S,> 100,–
O=S(=O)(N=[Se](=O)(c1ccccc1)c1ccccc1)c1ccccc1,> 100,–
Cc1ccc(S(=O)(=O)NCCCSCCN)cc1,> 100,–
COc1ccc(C[C@@H]2OC3(C=CC(=O)CC3Sc3ccccc3)O[C@H]2Cc2ccc(OC)cc2)cc1 (some centres not stated),21.2,–
Cn1ccc(S(=O)(=O)N2CCC[C@H](Nc3nccc(-c4c(-c5cccc(O)c5)nc5occn45)n3)C2)n1,81.6,14.3
COc1cc2c(SCCN(C)C)nc3ccccc3c2c2ccccc12,4.06,–
COc1ccc(NCc2cccc3c(=O)c4ccc(Cl)cc4oc23)cc1,> 100,–
Oc1ccc(I)c2cccnc12,82.5,–
CCP(C)(=O)CC,> 100,–
CN1CC=C(C#CC(C)(C)O)CC1,> 37.5,–
COC1(OC)CCCCCCCCC(OC)(OC)CCCCCCCC1,> 100,–
S=c1[nH]nc(COc2ccc(Cl)cc2)n1-c1ccccc1,> 100,–
COc1cc(C2C=C(C)N=C3SC=C(C)N32)cc(OC)c1OC (configuration not stated),11.1,3.01
CSc1ccccc1NC1=NCCO1,> 100,–
C=C1[C@@H](OC(C)=O)/C=C/C2C3C(=O)[C@@](C)(OC(C)=O)[C@H]([C@H](OC(C)=O)[C@]4(O)[C@@H](C)C(=O)O[C@H]4[C@H]1Cl)[C@@]23C (some centres not stated),> 100,–
CC(=O)NNc1nc(C)c(C(=O)/C=C/c2ccc(N(C)C)cc2)s1,> 100,–
O=C(O[C@H](/C=C/c1ccccc1)P1(=O)N(Cc2ccccc2)[C@H]2CCCC[C@@H]2N1Cc1ccccc1)c1ccccc1,> 100,–
O=C(Nc1ccc(C(F)(F)F)cc1[N+](=O)[O-])C(=O)Nn1c(=S)[nH]c2ccccc2c1=O,> 100,–
"COc1ccc(CC2NC(=O)C(NC(=O)c3c4nc5c(C(=O)NC6C(=O)NC(Cc7ccc(OC)cc7)C(=O)N7CCCC7C(=O)N(C)CC(=O)N(C)C(C(C)C)C(=O)OC6C)ccc(C)c5oc-4c(C)c(=O)c3N)C(C)OC(=O)C(C(C)C)N(C)C(=O)CN(C)C(=O)C3CCCN3C2=O)cc1 (configuration not stated) (I: TY(Me)P[Sar][NMeV] / II: TY(Me)P[Sar][NMeV]; ester I:1-I:C, II:1-II:C; linker I:N-II:N via Actinocin(1to9); configuration not given here)",0.124,–
CN(C)CC1CCCC/C1=N\OC(=O)c1ccccc1 (configuration not stated),> 100,–
Cc1cc(C)c([O-])c(-[n+]2c(-c3ccccc3)cc(-c3ccccc3)cc2-c2ccccc2)c1,18.2,–

# — PubChem BioAssay (NCI)
